In all, about 370,000 compounds went through this assay and about 150 (0.041%) were called active. The shares of active, inactive and inconclusive entries below differ from those in the screen. The call rests on the fitted dose curve; in most records, active means well fitted inhibition curve with a large enough effect; inconclusive means small, poorly fitted or top-dose-only effect; inactive means flat fitted curve, though single readings scatter. Potencies of inconclusive entries are left out as doubtful fits.
These molecules were tested against Beta-lactamase (Escherichia coli (strain K12)) (UniProt P00811) (assay: qHTS Inhibitors of AmpC Beta-Lactamase (assay with detergent)). Settings: AmpC hydrolysis of nitrocefin, absorbance 480 nm, 0.01% Triton; series mostly up to 114 µM.
Outline: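 20 mM phosphate pH 7.0 + 0.01% (detergent screen) or 0.0001% Triton X-100; 5.3 nM AmpC reagent; cpd preinc 15 min RT; nitrocefin (800 uM stock) to start; A480 q20 s × 4 min; Activity was normalised to no-enzyme and no-compound control wells.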
Further: nearly all actives have a fitted effect of over 25% in size.
Potency means the concentration at half of the fitted maximal effect; tags describe the fitted curve by direction and shape.

Chain of UniProt P00811 (P00811 whole entry, looked up): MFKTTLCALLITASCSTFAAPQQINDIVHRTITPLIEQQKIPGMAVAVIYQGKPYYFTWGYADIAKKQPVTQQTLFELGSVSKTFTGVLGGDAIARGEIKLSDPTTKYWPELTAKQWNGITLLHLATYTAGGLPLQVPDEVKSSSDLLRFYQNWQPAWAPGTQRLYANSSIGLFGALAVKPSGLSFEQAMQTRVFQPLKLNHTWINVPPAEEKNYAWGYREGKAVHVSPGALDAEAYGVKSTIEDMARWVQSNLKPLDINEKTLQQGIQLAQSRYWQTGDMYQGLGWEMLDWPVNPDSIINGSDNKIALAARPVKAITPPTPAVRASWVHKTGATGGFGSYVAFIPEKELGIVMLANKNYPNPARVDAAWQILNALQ

| SMILES | Potency |
| --- | --- |
| Cc1cccc(-n2c(C)c(-c3ccccc3)[nH]c2=S)c1 | inactive |
| CC(C)NC(=O)C1CCC(Cn2c(=O)c3sccc3n(CC(=O)Nc3ccccc3)c2=O)CC1 (stereo unspecified) | inactive |
| CCOC(=O)c1c(C)n(-c2ccccc2)c2ccc(OC(=O)c3cccc(Cl)c3)cc12 | inactive |
| CC1C(=O)N2CCCc3cc(NS(=O)(=O)c4ccccc4)cc1c32 (stereo unspecified) | inconclusive [inhibitor, single point] |
| CCCNC(=O)COC(=O)c1cc(SC)ccc1Cl | inconclusive [inhibitor, full curve, poor fit] |
| O=C(Cc1ccccc1)NCCS(=O)c1ccc(Cl)cc1 (stereo unspecified) | inconclusive [inhibitor, partial curve, poor fit] |
| Cc1cc(C)n2nc(SCC(=O)N3CCN(c4ccc(F)cc4)CC3)nc2n1 | inconclusive [inhibitor, single point] |
| CCOc1ccc(S(=O)(=O)Nc2c(C)n(C)n(-c3ccccc3)c2=O)cc1 | inconclusive [inhibitor, full curve, poor fit] |
| COc1ccc(-c2noc(CCC(=O)NCc3cccnc3)n2)cc1OC | inconclusive [inhibitor, full curve, poor fit] |
| COc1ccc(-c2cc(C(F)(F)F)nc(SCC(=O)N(C)Cc3cnn(C)c3C)n2)cc1OC | inconclusive [inhibitor, full curve, poor fit] |
| O=C(CNC(=O)c1cccc(Br)c1)NCCc1nc2ccccc2[nH]1 | inconclusive [inhibitor, full curve, poor fit] |
| Cc1ccccc1Oc1cc(-n2ncc(Cl)c(Cl)c2=O)ncn1 | inactive |
| Cc1cccc(CCNS(=O)(=O)c2ccc3c(c2)n(C)c(=O)c(=O)n3C)c1 | inconclusive [inhibitor, full curve, poor fit] |
| O=C(O)Cc1sc(N/N=C\c2ccccc2)nc1-c1ccccc1 | inconclusive [inhibitor, full curve, poor fit] |
| CCOc1ccc(-c2ccc3nnc(SCC(=O)NCC4CCCO4)n3n2)cc1 (stereo unspecified) | inconclusive [inhibitor, full curve, poor fit] |
| COc1cc2c(cc1OC)C1O[C@](CCCCN3C(=O)c4ccccc4C3=O)(C2)OC2=C1C(=O)c1ccccc1C2=O | inconclusive [inhibitor, partial curve] |
| Cc1ccc(Cl)cc1NC(=O)COC(=O)CC1CC2CCC1C2 (stereo unspecified) | inconclusive [inhibitor, full curve, poor fit] |
| COC(=O)c1cccc(NS(=O)(=O)c2ccc(OC)cc2)c1C | inconclusive [inhibitor, single point] |
| COc1ccc(Cc2nnc(NS(=O)(=O)Cc3ccccc3)s2)cc1 | inconclusive [inhibitor, full curve, poor fit] |
| CC1(C)C/C(=N\O)C(C(O)c2cccc([N+](=O)[O-])c2)C(C)(C)N1 (stereo unspecified) | inactive |
| CC(=O)NC(CC(=O)NC(C)c1ccc(Cl)cc1Cl)c1ccccc1 (stereo unspecified) | inconclusive [inhibitor, partial curve] |
| O=c1c(-c2ccc(Cl)cc2)cnc2n1CCS2 | inconclusive [inhibitor, full curve, poor fit] |

| SMILES | Potency |
| --- | --- |
| Cc1ccc(C(=O)NCC(=O)Nc2ccncc2)cc1C | inconclusive [inhibitor, full curve] |
| COc1ccc(OCCNS(=O)(=O)Cc2ccccc2)cc1 | inconclusive [inhibitor, full curve, poor fit] |
| COc1ccc(CNCCC(c2ccc(F)cc2)c2ccc(OC)cc2)cc1 (stereo unspecified) | inconclusive [inhibitor, full curve] |
| O=C1CC2(CCN(C(=O)C3CC(=O)N(c4ccccc4)C3)CC2)Oc2ccccc21 (stereo unspecified) | inactive |
| O=C(NCC1CCCO1)c1c(O)c2c([nH]c1=O)CCCC2 (stereo unspecified) | inconclusive [inhibitor, partial curve, poor fit] |
| COc1ccc(NC(=O)CSc2nc(-c3cccs3)cc(C(F)(F)F)n2)c(OC)c1 | inactive |
| Fc1cc2ncn(Cc3ccccc3)c2cc1F | inconclusive [inhibitor, full curve, poor fit] |
| CCOC(=O)C1(CC2CC2)CCN(Cc2cnc(N(C)C)s2)CC1 | inactive |
| CCOC(=O)c1oc2ccc(CNCCO)c(Cl)c2c1C | inconclusive [inhibitor, full curve, poor fit] |
| CCOC(=O)c1sc(NC(=O)CSc2nnc(-c3ccc(OC)cc3)n2CCOC)nc1C | inconclusive [inhibitor, partial curve, poor fit] |
| COC(=O)c1c(N)c(C#N)c2n1CCCCC2 | inactive |
| CCOc1ccc(NC(=O)c2cccnc2C(=O)O)cc1 | inconclusive [inhibitor, single point] |
| Cc1nn(-c2nc3ccccc3[nH]2)c(N)c1-c1ccc(Cl)cc1 | inactive |
| O=[N+]([O-])c1ccc(SCc2c(F)cccc2Cl)nc1 | inactive |
| Nc1ncnc2c1ncn2C1OC(COP(=O)(O)O)C(O)C1O (stereo unspecified) | inconclusive [inhibitor, full curve, poor fit] |
| COc1ccc(CN2CCCC(CO)(Cc3ccc(F)cc3)C2)c(OC)c1OC (stereo unspecified) | inconclusive [inhibitor, partial curve, poor fit] |
| CCOC(=O)c1c(N)n[nH]c1-c1ccccc1 | inconclusive [inhibitor, full curve, poor fit] |
| Cc1ccc(-n2c(SCC(=O)Nc3cc(S(=O)(=O)N4CCOCC4)ccc3Cl)nc3ccccc3c2=O)cc1 | inactive |
| CCOC(=O)c1c(C)[nH]c(C)c1S(=O)(=O)N(C)CC(=O)NCc1cccc(Br)c1 | inactive |
| O=C(Cn1c(C(F)(F)F)nc2ccccc21)N/N=C/c1ccco1 | inconclusive [inhibitor, single point] |
| O=C(CCc1c[nH]c2ccccc12)N1CCN(S(=O)(=O)c2ccccc2)CC1 | inconclusive [inhibitor, partial curve, poor fit] |
| OCC[C@@H]1C[C@@H](O)[C@H](O)[C@]2(OCc3ccccc32)O1 | inactive |

| SMILES | Potency |
| --- | --- |
| NC(=O)c1ccccc1NS(=O)(=O)c1ccccc1 | inconclusive [inhibitor, single point] |
| CC(NC(=O)Nc1ccccc1)C(c1cccs1)N1CCOCC1 (stereo unspecified) | inconclusive [inhibitor, single point] |
| O=C(COC(=O)c1cc([N+](=O)[O-])ccc1N1CCCC1)Nc1ccccc1OC(F)F | inconclusive [inhibitor, full curve, poor fit] |
| CCCCN(C(=O)c1ccc(S(=O)(=O)N2CCCC2)cc1)C1CCS(=O)(=O)C1 (stereo unspecified) | inconclusive [inhibitor, full curve, poor fit] |
| CCC(NC(=O)c1ccccc1NC(=O)c1ccco1)C(=O)O (stereo unspecified) | inconclusive [inhibitor, full curve, poor fit] |
| CCOc1cc(C(=O)NCCOC)ccc1OC | inconclusive [inhibitor, full curve] |
| COc1ccc(-c2cc3ccc(O)cc3oc2=O)cc1OC | inactive |
| O=C(CSc1nnc(CNc2ccc(Cl)cc2)n1Cc1ccccc1)NCc1ccco1 | inconclusive [inhibitor, partial curve, poor fit] |
| CS(=O)(=O)N(CC(=O)NCC1CCCO1)c1ccc(Cl)c(Cl)c1 (stereo unspecified) | inconclusive [inhibitor, partial curve, poor fit] |
| CC(OC(=O)CN1C(=O)NC2(CCCC2)C1=O)C(=O)Nc1cccc(Cl)c1Cl (stereo unspecified) | inconclusive [inhibitor, full curve, poor fit] |
| COc1cccc(NC(=O)Nc2ccccc2SC)c1 | inactive |
| CCC1CCc2c(sc(NC(C)=O)c2C#N)C1 (stereo unspecified) | inconclusive [inhibitor, full curve] |
| CN(C)C1(CNC(=O)c2ccc(NS(=O)(=O)c3ccc(Cl)c(Cl)c3)cc2)CCCCC1 | inactive |
| CCOC(=O)C1CCCN(C(=O)c2ccc3c(c2)N(Cc2ccc(Cl)cc2)C(=O)c2ccccc2S3=O)C1 (stereo unspecified) | inactive |
| CCOc1cc(N2CCOCC2)c(OCC)cc1NC(=O)COC(=O)c1cc(C)oc1C | inconclusive [inhibitor, single point] |
| COc1ccc(NC(=O)C2CCN(S(=O)(=O)c3cc(-c4noc(C)n4)ccc3C)CC2)cc1 | inactive |
| CN1CCN(C(=O)c2ccc3c(c2)N(Cc2ccc(Cl)cc2)C(=O)c2ccccc2S3=O)CC1 (stereo unspecified) | inconclusive [inhibitor, partial curve, poor fit] |
| Cc1cc(NC(=O)CN2C(=O)/C(=C/c3ccccc3F)SC2=S)no1 | inconclusive [inhibitor, full curve, poor fit] |
| O=C(Nc1ccc2c(c1)OCO2)c1ccc(CN2CCOCC2)cc1 | inconclusive [inhibitor, partial curve] |
| O/N=C/c1ccc(-c2cc(Cl)ccc2Cl)o1 | inconclusive [inhibitor, partial curve, poor fit] |
| COCCSc1nnc(NC(=O)Cc2ccccc2OC)s1 | inconclusive [inhibitor, single point] |
| COc1ccc(S(=O)(=O)N2CCCC2)cc1C(=O)O | inconclusive [inhibitor, full curve, poor fit] |

— PubChem BioAssay AID485294 (National Center for Advancing Translational Sciences (NCATS), 2010)
